In the supplement of paper PMC9334596:
Several values for one entry are separate records, joined by “and”; a condition that tells them apart may be missing. Identical values can stand only once. Whole data set: some 5,300 compounds, median “PER2::LUC luminescence relative to vehicle control” near 0.96, cut for the highest 2% near 1.3. Some of the results follow.

System: mPer2Luc MEF
Experiment: PER2::LUC luminescence relative to vehicle control (fold of vehicle); higher = higher PER2::LUC reporter signal
Conditions: 10 µM
How it was run: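 Mouse embryonic fibroblasts carrying the mPer2Luc reporter were seeded at ~3000 cells per well in 384-well plates, 48 h before compounds from commercial libraries were added at 10 μM. Cells were grown in DMEM with 10% FBS at 37 °C and 5% CO2. Luminescence was read with the ONE-Glo luciferase assay system 24 h and 30 h after treatment, followed by an alamarBlue viability assay. The value is PER2::LUC luminescence as fold of vehicle control.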

SMILES | PER2::LUC luminescence (time after treatment 24 h) | PER2::LUC luminescence (time after treatment 30 h)
Nc1ncnc2c1ncn2[C@@H]1O[C@H](COP(=O)(O)OP(=O)(O)OP(=O)(O)O)[C@@H](O)[C@H]1O | 1.04 and 1.09 | 0.954 and 1.11
N#Cc1c(-c2ccccc2)cc(-c2cc(Br)ccc2O)[nH]c1=O | 0.951 | 0.967
CC(=O)N[C@H]1[C@H]([C@H](O)[C@H](O)CO)OC(C(=O)O)=C[C@@H]1NC(=N)N | 0.973 | 0.945
Cc1cnc(CNC(=O)c2c(=O)c3ccc(N4CCCN(C)CC4)nc3n3c2sc2ccccc23)cn1 | 0.864 | 0.599
COc1ccc(-c2cc(=O)c3ccc(O)cc3o2)cc1 | 1.19 | 1.23
N[C@@H](C(=O)N[C@@H]1C(=O)N2C(C(=O)O)=C(CSc3cn[nH]n3)CS[C@H]12)c1ccc(O)cc1 | 1 | 0.912
CN(C)Cc1cccc(N/C(=C2\C(=O)Nc3cc(C(N)=O)ccc32)c2ccccc2)c1 | 0.8 and 0.668 | 0.995 and 0.615
CCN1CC(CCN2CCOCC2)C(c2ccccc2)(c2ccccc2)C1=O (stereo not drawn) | 1.19 and 1.17 | 1.11 and 1.06
Cc1c(C(=O)NN2CCOCC2)nn(-c2ccc(Cl)cc2Cl)c1-c1ccc(I)cc1 | 1.07 | 1.09
C=C1C(=O)O[C@@H]2C[C@@]3(C)CCC[C@H](C)C3=C[C@H]12 | 0.959 | 0.945
C#CCN1C(C)=C(C(=O)OC)C(c2cccc([N+](=O)[O-])c2)C(C(=O)OCC)=C1C (stereo not drawn) | 0.918 | 0.966
COc1ccc(C(=O)/C=C/c2ccccc2)cc1 | 1.25 | 1.28
OCc1cc(C(O)CNCCCCCCOCCCCc2ccccc2)ccc1O (stereo not drawn) | 0.732 and 1.11 | 0.766 and 1.06
OCC12COC(c3ccc(F)cc3)N1C(c1ccc(F)cc1)OC2 (stereo not drawn) | 1.07 | 1.03
CC(=O)OCC(=O)[C@@]12N=C(C)O[C@@H]1C[C@H]1[C@@H]3CCC4=CC(=O)C=C[C@]4(C)[C@H]3[C@@H](O)C[C@@]12C | 0.575 | 1.16
CC(=O)Nc1ccc(CC(=O)O)cc1 | 0.818 | 0.808
C[C@@H](CN1CC(=O)NC(=O)C1)N1CC(=O)NC(=O)C1 | 1.1 | 0.925
CC(C)CCC[C@@H](C)[C@H]1CC[C@H]2[C@@H]3C=CC4=CC(=O)CC[C@]4(C)[C@H]3CC[C@]12C | 0.981 | 0.927
N=C(N)NCCC[C@H](N)C(=O)O | 1.08 and 1.11 | 0.918 and 1.1
O=c1oc2cc(O)ccc2c2oc3cc(O)ccc3c12 | 1.06 | 1.13
CNCCC(Oc1ccc(C(F)(F)F)cc1)c1ccccc1 (stereo not drawn) | 0.743 and 0.643 | 0.681 and 0.579

SMILES | PER2::LUC luminescence (time after treatment 24 h) | PER2::LUC luminescence (time after treatment 30 h)
Cc1nc2n(c(=O)c1CCN1CCC(c3noc4cc(F)ccc34)CC1)CCCC2 | 1.04 | 0.953
Cc1cc2c(cc1Cl)N(C(=O)Nc1cccc3ncccc13)CC2 | 1.21 | 1.06
CCn1cc(C(=O)O)c(=O)c2cnc(N3CCCC3)nc21 | 0.937 | 0.965
O=S(=O)(O)CCS | 1.06 | 1.06
CCCCCCCCCCCCC[N+](C)(C)Cc1ccccc1 | 0.132 | 0.207
CCCCCCCCCCC/C=C\C(C)(C)/C=C\CCCC(=O)O | 0.905 | 0.804
Cn1c(-c2ccc3c(c2)OCO3)cc(=O)c2ccccc21 | 1.07 | 1.11
CCOc1ccccc1OCCN[C@H](C)Cc1ccc(OC)c(S(N)(=O)=O)c1 | 1.09 and 1.03 | 1.05 and 0.993
CC(C)(C)NC[C@H](O)c1ccc(O)c(CO)c1 | 0.599 | 0.909
CC(C)Nc1ncccn1 | 0.974 | 0.864
O=C(O)c1cc(-c2ccc(F)cc2F)ccc1O | 0.866 | 1.07
O[C@H]1[C@H]2c3cc4c(cc3CN3CCC(=C[C@@H]1O)[C@H]23)OCO4 | 1.03 | 0.952
CCCCNC(=O)NS(=O)(=O)c1ccc(C)cc1 | 0.913 | 0.908
COC(=O)c1c(C)cc(O)cc1O | 1.01 | 0.946
CCCS(=O)(=O)Nc1ccc(F)c(C(=O)c2c[nH]c3ncc(-c4ccc(Cl)cc4)cc23)c1F | 0.839 and 1.12 | 0.889 and 1.04
CCOC(=O)OC(C)OC1=C(C(=O)Nc2ccccn2)N(C)S(=O)(=O)c2ccccc21 (stereo not drawn) | 1.1 | 0.871
O=C(Nc1c(Cl)cncc1Cl)c1ccc(OC(F)F)c(OCC2CC2)c1 | 0.843 | 0.859
CC(=O)[C@H]1CC[C@H]2[C@@H]3C[C@H](C)C4=CC(=O)CC[C@]4(C)[C@H]3[C@@H](O)C[C@]12C | 0.583 | 1.12
CN(C)Cc1ccc(-c2nc3cccc4c3n2CCNC4=O)cc1 | 1.09 | 1.05
CCCCCCc1ccc(O)cc1O | 0.949 and 0.856 | 0.695 and 0.726
CC1(C)NC(=O)N(c2ccc([N+](=O)[O-])c(C(F)(F)F)c2)C1=O | 0.945 | 1.04

SMILES | PER2::LUC luminescence (time after treatment 24 h) | PER2::LUC luminescence (time after treatment 30 h)
CC(C)(c1ccc(O)cc1)c1ccc(O)cc1 | 1.22 | 1.26
CC(C)C[C@H](NC(=O)[C@H]1O[C@@H]1C(=O)O)C(=O)NCCCCN=C(N)N | 0.953 | 0.977
Cc1nnc(-c2sc(NC(=O)[C@H](C(C)C)n3c(=O)[nH]c4ccccc4c3=O)nc2C)o1 | 1.04 | 0.956
Oc1c2ccccc2c2c3c(cccc13)N=N2 | 0.849 | 1.03
C=C(C)[C@@H]1CC=C(C(=O)O)CC1 | 0.906 and 1.06 | 0.925 and 1.16
COC(=O)[C@@H]1[C@H]2C[C@H]3c4[nH]c5ccccc5c4CCN3C[C@@H]2CC[C@@H]1O | 0.959 | 0.869
C[C@]12C=CC(=O)C=C1CC[C@@H]1[C@@H]2[C@@H](O)C[C@@]2(C)[C@H]1CC[C@]2(O)C(=O)COC(=O)CCC(=O)O | 0.653 and 0.556 | 0.852 and 0.926
COC(=O)C[C@H]1C(C)(C)C(=O)[C@@H]2CC3=C4CC(=O)O[C@@H](c5ccoc5)[C@]4(C)CC[C@@H]3[C@@]1(C)C2=O | 0.9 | 0.918
CC(C)NCC(O)COc1cccc2ccccc12 (stereo not drawn) | 0.712 | 0.907
COc1ccc2cc([C@@H](C)C(=O)O)ccc2c1 | 1 | 1.05
COc1cccc(CNc2ccc3nc(-c4ccc(N)cc4)c(OC)n3n2)c1 | 0.931 | 0.985
Nc1nc(=O)c2c([nH]1)NC[C@@H](CNc1ccc(C(=O)N[C@@H](CCC(=O)O)C(=O)O)cc1)N2C=O | 1.09 | 1.05
CC(=O)N[C@@H]([C@@H](O)[C@H](O)[C@H](O)CO)[C@@H](O)CC(=O)C(=O)O | 0.972 | 1.01
COC(=O)[C@H](Cc1cccc(C(=N)N)c1)[C@@H](C)NC(=O)c1ccc(-c2cc[n+]([O-])cc2)cc1 | 1.02 | 1.04
Cc1nc(NC(=O)N2CCC[C@H]2C(N)=O)sc1-c1ccnc(C(C)(C)C(F)(F)F)c1 | 0.553 | 0.49
COc1ccc(C(=O)C2CCN(CC(=O)N(Cc3nc4c(c(=O)[nH]3)COCC4)CC3CC3)CC2)cc1 | 1.04 | 0.931
S=C(S)O[C@H]1C[C@H]2C[C@@H]1[C@@H]1CCC[C@H]21 | 1.04 | 1.01
CN1C(=O)C(F)=C[C@]2(C)[C@H]3CC[C@]4(C)[C@@H](C(=O)NCc5nc6cccnc6[nH]5)CC[C@H]4[C@@H]3CC[C@@H]12 | 0.934 | 0.988
C[C@@H](NC(=O)/C(C#N)=C/c1ccc(O)c(O)c1)c1ccccc1 | 1.08 | 1.1
Sc1nc2ccccc2s1 | 0.972 | 0.928
CCOCCOc1ccccc1C(N)=O | 0.861 | 1.09

SMILES | PER2::LUC luminescence (time after treatment 24 h) | PER2::LUC luminescence (time after treatment 30 h)
COc1ccc2cc1Oc1ccc(cc1)C[C@H]1c3cc(c(OC)cc3CCN1C)Oc1c(OC)c(OC)cc3c1[C@H](C2)N(C)CC3 | 0.354 | 0.398
CC[C@H]1OC(=O)[C@H](C)C(=O)[C@H](C)[C@@H](O[C@@H]2O[C@H](C)C[C@H](N(C)C)[C@H]2O)[C@](C)(OC)C[C@@H](C)C(=O)[C@H](C)[C@H]2N(CCCCn3cnc(-c4cccnc4)c3)C(=O)O[C@]12C | 1.06 | 0.887
CCCCOc1cc(C(=O)NCCN(CC)CC)c2ccccc2n1 | 0.922 and 0.647 | 0.751 and 0.73
O=C(O)[C@H]1C[C@H](C(=O)O)N1 (relative stereo) | 1.04 | 0.998
O=P(O)(O)C(Cl)(Cl)P(=O)(O)O | 1.12 | 0.974
Cc1ccc(O)cc1Nc1ccnc(Nc2cccc(C(N)=O)c2)n1 | 1.05 | 1.02
C[C@H](CC[C@@H]1OC1(C)C)[C@H]1CC[C@H]2[C@@H]3CC=C4C[C@@H](O)CC[C@]4(C)[C@H]3CC[C@]12C | 1.03 | 0.937
O=C1CCc2cc(OCCCCc3nnnn3C3CCCCC3)ccc2N1 | 0.737 | 0.864
CCS(=O)(=O)CCn1c([N+](=O)[O-])cnc1C | 1.08 | 0.966
N#C[C@@H]1C[C@@H]2C[C@@H]2N1C(=O)[C@@H](N)C12CC3CC(CC(O)(C3)C1)C2 | 1.25 and 0.721 | 1.11 and 1.01
CCC1=C(C)CN(C(=O)NCCc2ccc(S(=O)(=O)NC(=O)N[C@H]3CC[C@H](C)CC3)cc2)C1=O | 0.958 | 1.22
Cc1ccccc1-n1c(Cn2nc(-c3cccc(O)c3)c3c(N)ncnc32)nc2cccc(C)c2c1=O | 1.07 | 1.13
C[C@@]12C[C@@]3(O)O[C@@H](O1)[C@]1(COC(=O)c4ccccc4)[C@H]3C[C@@]12O[C@@H]1O[C@H](CO)[C@@H](O)[C@H](O)[C@H]1O | 0.885 and 0.959 | 1.05 and 0.911
COc1cc(/C=C/c2ccccc2)oc(=O)c1 | 1.22 | 1.31
CCC(C)SSc1ncc[nH]1 (stereo not drawn) | 0.715 | 0.789
CCCCCCCC/C=C\CCCCCCCC(=O)NCCc1ccc(O)c(O)c1 | 1.06 | 1.12
CC(=O)OCC1=C(C(=O)O)N2C(=O)[C@@H](NC(=O)CSc3ccncc3)[C@H]2SC1 | 0.929 | 0.956
CN(C)[C@@H]1C(O)=C(C(N)=O)C(=O)[C@@]2(O)C(O)=C3C(=O)c4c(O)ccc(Cl)c4[C@@](C)(O)[C@H]3C[C@@H]12 | 0.816 | 1.05
O=C1OC2(c3ccc(O)cc3Oc3cc(O)ccc32)c2ccccc21 | 1.03 | 0.742
CC(CC(=O)O)C(N)C(=O)O (racemic) | 0.979 | 0.922
COc1cc(C(=O)NC2CCCNC2)cc(OC)c1OC (stereo not drawn) | 1.01 | 1.25
